Data on 84 variants can be found in the RNAGym collection of RNA variant scans (doi:10.7554/elife.90254).

First the molecules themselves.
B1: OR4K15 (parent)
chain: GUUAACGGUCAUAGGCCAUGGAAACUAGGAGCACCAUUUCGCUGCCAGUGAAGAAAUGAACAAAGAAAAUCUGGGCCAGGCAGGCAUCAAAAGAAAUAGUCUUGCGCUCAACCAGAAAGUCUGUAAUCAUUUUAAGGGUA

Read counts are not given, so values of variants with three or more changes are uncertain.

The variants in this data set derive from B1. Description: self-cleavage, relative activity (ratio to wild type); higher = more cleavage; in vitro, sequencing; the parent is a self-cleaving ribozyme.
Turning to A22G A95G U103C, the self-cleavage turned out to be 1.88.

For the variant A22G U103A U130C, the self-cleavage was determined as 0.51.

Regarding A22G C32U A33G A56G A96G, the self-cleavage was 1.25.

Regarding G20U A66G A86U, the self-cleavage was determined as 1.46.

Regarding A22G A86G A110G A117U, the self-cleavage was 0.14.

A22G A27G A63G A92U A140U: the self-cleavage was 0.78.

As to A22C U87C A140G, the self-cleavage stood at 1.76.

For A22G A33G A89U, the self-cleavage came out at 1.06.

With A22U A23G A111U A114U U122A A140G, the self-cleavage turned out to be 0.

As to A22G A66G A140G, the self-cleavage was determined as 1.54.

Regarding A22G C46U A86G A90G C113U, the self-cleavage was 0.01.

On to A22G A30G U37C A111U U133C, for which the self-cleavage came to 0.13.

As to G21A U43C A51G A56G A67G A96G A118U A126U U127C, the self-cleavage came out at 0.06.

Turning to A22G A36G A54G U102A U108A U131C, the self-cleavage was found to be 0.01.

As for A22U A51G U108G, the self-cleavage worked out at 0.02.

Take A22C A66G U97A: the self-cleavage turned out to be 1.98.

Take G21U U26C A125G: the self-cleavage came out at 0.6.

As for A22G A30G A118G, the self-cleavage amounted to 1.2.

A22G U37C A56G A90G C105U: the self-cleavage stood at 0.03.

In the case of A22G A78G U108C, the self-cleavage is 0.02.

Turning to A22G U43A A86U, the self-cleavage came to 1.64.

For the variant A22G A33C A60G A89G, the self-cleavage is 1.08.

For the variant A22U U39G A62G U70C A86G A111G, the self-cleavage is 0.

For A22G U100C A111G U120C U127A, the self-cleavage came out at 0.

In the case of A22G A24G U37C A116G, the self-cleavage worked out at 0.3.

On to A22G U124C U130C A135G, for which the self-cleavage is 0.05.

With A22G A66G U122C, the self-cleavage came out at 1.37.

For A22G A69G U72A, the self-cleavage came to 0.32.

Turning to A22U A36C U103C, the self-cleavage was determined as 1.38.

A23C C45U U97C: the self-cleavage was determined as 0.8.

With A22U A51G A55G A59G G74A A78C, the self-cleavage turned out to be 0.31.

U19G A59U A111G A118U: the self-cleavage is 0.06.

Regarding A22C U38C A82G, the self-cleavage amounted to 0.32.

For A22G U38A A52G A69G A91G A96G A140G, the self-cleavage stood at 0.58.

Regarding A22G U43A A110G, the self-cleavage is 0.09.

As to U19C U127C U133C, the self-cleavage was found to be 0.49.

Take A22G U102C A114U: the self-cleavage came out at 0.3.

For the variant U19G A23G U38C A56G, the self-cleavage amounted to 1.27.

Turning to A22G U100C U103C, the self-cleavage was determined as 0.86.

For A22G A51G U102C C109A U130C, the self-cleavage worked out at 0.55.

On to A23G A24C U37C A92G, for which the self-cleavage came to 0.84.

As to A22G A59G A78G A90G U122C, the self-cleavage came out at 0.09.

With A22G A56G A62G U102C, the self-cleavage is 1.06.

With A22G A59G A110G, the self-cleavage came to 0.1.

Consider A22G A30G U122C, for which the self-cleavage worked out at 1.02.

Take A22G U43A A60G G106U: the self-cleavage was determined as 0.04.

A22U A33U A110U: the self-cleavage was 1.28.

In the case of U19C U70A A96G A117U A126G U131C, the self-cleavage amounted to 0.22.

As to A22G U38G U120C, the self-cleavage came out at 1.58.

As for A22G A90G A92G A98G, the self-cleavage was 0.69.

On to A22G A51G A125G, for which the self-cleavage stood at 0.45.

Consider A22G A24G A52C A78G, for which the self-cleavage was determined as 0.33.

Turning to G20A U43C U103C A118U G136U, the self-cleavage was 0.22.

Consider A22G A33G A56G A68G A78U A111G U130C, for which the self-cleavage was determined as 0.01.

A22G U57C U72C U122A: the self-cleavage was 0.13.

With A22G A51U A111U A114U, the self-cleavage stood at 0.02.

As to A22G A23G A116G, the self-cleavage was found to be 0.16.

A22U A47U A126G: the self-cleavage is 1.03.

In the case of A22G A91G A116U A135G G137U, the self-cleavage came to 0.24.

With A22G A96G U102C A129G, the self-cleavage was 2.19.

As to A22G A33U U57G, the self-cleavage came out at 1.18.

Take A22G A52G A96U: the self-cleavage came to 0.82.

A23C U72C A92G G93A U97A C105G: the self-cleavage was found to be 0.02.

With A22G U37C G44A U103A, the self-cleavage was found to be 1.11.

As for A22G U43C A52G G74U, the self-cleavage came to 0.19.

For the variant A22G A30U U108C, the self-cleavage was 0.06.

As for A23C A56U A59G U108C A118G, the self-cleavage is 0.03.

Consider G21A A52G C109U, for which the self-cleavage is 0.68.

With A22U U26A A33U, the self-cleavage came to 1.23.

On to A23C A67U A140G, for which the self-cleavage is 1.16.

For the variant A22G U39C A55G U72C A82G G84A, the self-cleavage amounted to 0.27.

For G20A U49A A52U A114G, the self-cleavage was 0.12.

Regarding A22U A68G U108A A116G, the self-cleavage came to 0.02.

For the variant A22G U38C U49C A62G U72C, the self-cleavage came to 0.16.

Take A22G C40U U97C: the self-cleavage was 0.8.

Regarding A22G A33G A94G, the self-cleavage came to 0.85.

Take A22C U57C A62G A68G: the self-cleavage amounted to 0.33.

For the variant A22G A67U A69G, the self-cleavage worked out at 1.37.

In the case of U19G A59G A66G, the self-cleavage came to 0.56.

Regarding A23C A52G U132C U133A, the self-cleavage amounted to 2.03.

On to A22G U39A A78G U132C, for which the self-cleavage amounted to 0.38.

As for A22G A68G A96G A114G U122A, the self-cleavage is 0.26.

On to A22G U43C U70A, for which the self-cleavage came to 1.23.

As to A22G A129G U130C U139A, the self-cleavage stood at 0.57.
